In the supplement of paper PMC8728848:
The list shows a part of the results.

What was measured:
Test in all cases: glycan array binding signal (z-score within array); higher = stronger binding
Details in all cases: glycan notation: IUPAC condensed, linker removed
[1] = target: Gal(a1-3)Gal(b1-4)GlcNAc(b1-2)Man
Procedure, shortened: (§1)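 The binding signal is a Z-score computed within each array and averaged over linkers. Arrays of the same protein sequence at different concentrations or buffers were also averaged together. Data originate from 3228 arrays in the Consortium for Functional Glycomics database, kept only where the protein sequence was available.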

[2] = target: Gal(a1-3)Gal(b1-4)GlcNAc(b1-2)Man(a1-3)[Gal(a1-3)Gal(b1-4)GlcNAc(b1-2)Man(a1-6)]Man(b1-4)GlcNAc(b1-4)GlcNAc
Procedure, shortened: as §1

[3] = target: Gal(a1-3)Gal(b1-4)GlcNAc(b1-3)GalNAc
Procedure, shortened: as §1

[4] = target: Gal(a1-3)Gal(b1-4)GlcNAc(b1-6)GalNAc
Procedure, shortened: as §1

[5] = target: Gal(a1-3)Gal(b1-4)[Fuc(a1-3)]GlcNAc
Procedure, shortened: as §1

[6] = target: Gal(a1-3)Gal(b1-4)[Fuc(a1-3)]GlcNAc(b1-2)Man(a1-3)[Gal(a1-3)Gal(b1-4)[Fuc(a1-3)]GlcNAc(b1-2)Man(a1-6)]Man(b1-4)GlcNAc(b1-4)GlcNAc
Procedure, shortened: as §1

[7] = target: Gal(a1-3)GalNAc
Procedure, shortened: as §1

[8] = target: Gal(a1-3)[Gal(a1-4)]Gal(b1-4)GlcNAc
Procedure, shortened: as §1

[9] = target: Gal(a1-4)Gal(b1-3)GlcNAc(b1-2)Man(a1-3)[Gal(a1-4)Gal(b1-3)GlcNAc(b1-2)Man(a1-6)]Man(b1-4)GlcNAc(b1-4)GlcNAc
Procedure, shortened: as §1

[10] = target: Gal(a1-4)Gal(b1-4)Glc
Procedure, shortened: as §1

[11] = target: Gal(a1-4)Gal(b1-4)GlcNAc
Procedure, shortened: as §1

[12] = target: Gal(a1-4)Gal(b1-4)GlcNAc(b1-2)Man(a1-3)[Gal(a1-4)Gal(b1-4)GlcNAc(b1-2)Man(a1-6)]Man(b1-4)GlcNAc(b1-4)GlcNAc
Procedure, shortened: as §1

[13] = target: Gal(a1-4)Gal(b1-4)GlcNAc(b1-3)Gal(b1-4)Glc
Procedure, shortened: as §1

[14] = target: Gal(a1-4)GlcNAc
Procedure, shortened: as §1

[15] = target: Gal(a1-6)Glc
Procedure, shortened: as §1

[16] = target: Gal(b1-2)Gal
Procedure, shortened: as §1

[17] = target: Gal(b1-3)Gal
Procedure, shortened: as §1

[18] = target: Gal(b1-3)Gal(b1-4)GlcNAc
Procedure, shortened: as §1

[19] = target: Gal(b1-3)GalNAc
Procedure, shortened: as §1

[20] = target: Gal(b1-3)GalNAc(a1-3)[Fuc(a1-2)]Gal(b1-4)Glc
Procedure, shortened: as §1

[21] = target: Gal(b1-3)GalNAc(a1-3)[Fuc(a1-2)]Gal(b1-4)GlcNAc
Procedure, shortened: as §1

[22] = target: Gal(b1-3)GalNAc(b1-3)Gal
Procedure, shortened: as §1

[23] = target: Gal(b1-3)GalNAc(b1-3)Gal(a1-4)Gal(b1-4)Glc
Procedure, shortened: as §1

[24] = target: Gal(b1-3)GalNAc(b1-4)Gal(b1-4)Glc
Procedure, shortened: as §1

[25] = target: Gal(b1-3)GalNAc(b1-4)[Neu5Ac(a2-3)]Gal(b1-4)Glc
Procedure, shortened: as §1

[26] = target: Gal(b1-3)GlcNAc
Procedure, shortened: as §1

[27] = target: Gal(b1-3)GlcNAc(a1-3)Gal(b1-4)GlcNAc
Procedure, shortened: as §1

[28] = target: Gal(b1-3)GlcNAc(a1-6)Gal(b1-4)GlcNAc
Procedure, shortened: as §1

[29] = target: Gal(b1-3)GlcNAc(b1-2)Man
Procedure, shortened: as §1

[30] = target: Gal(b1-3)GlcNAc(b1-2)Man(a1-3)[Gal(b1-3)GlcNAc(b1-2)Man(a1-6)]Man(b1-4)GlcNAc(b1-4)GlcNAc
Procedure, shortened: as §1

[31] = target: Gal(b1-3)GlcNAc(b1-2)Man(a1-3)[Gal(b1-3)GlcNAc(b1-2)Man(a1-6)]Man(b1-4)GlcNAc(b1-4)[Fuc(a1-6)]GlcNAc
Procedure, shortened: as §1

[32] = target: Gal(b1-3)GlcNAc(b1-2)Man(a1-3)[GlcNAc(b1-4)][Gal(b1-3)GlcNAc(b1-2)Man(a1-6)]Man(b1-4)GlcNAc(b1-4)GlcNAc
Procedure, shortened: as §1

[33] = target: Gal(b1-3)GlcNAc(b1-2)[Gal(b1-3)GlcNAc(b1-6)]Man(a1-6)[Gal(b1-3)GlcNAc(b1-2)Man(a1-3)]Man(b1-4)GlcNAc(b1-4)GlcNAc
Procedure, shortened: as §1

[34] = target: Gal(b1-3)GlcNAc(b1-3)Gal(b1-3)GlcNAc
Procedure, shortened: as §1

[35] = target: Gal(b1-3)GlcNAc(b1-3)Gal(b1-4)Glc
Procedure, shortened: as §1

[36] = target: Gal(b1-3)GlcNAc(b1-3)Gal(b1-4)GlcNAc
Procedure, shortened: as §1

[37] = target: Gal(b1-3)GlcNAc(b1-3)Gal(b1-4)GlcNAc(b1-2)Man(a1-3)[Gal(b1-3)GlcNAc(b1-3)Gal(b1-4)GlcNAc(b1-2)Man(a1-6)]Man(b1-4)GlcNAc(b1-4)GlcNAc
Procedure, shortened: as §1

[38] = target: Gal(b1-3)GlcNAc(b1-3)Gal(b1-4)GlcNAc(b1-2)[Gal(b1-3)GlcNAc(b1-3)Gal(b1-4)GlcNAc(b1-6)]Man(a1-6)[Gal(b1-3)GlcNAc(b1-3)Gal(b1-4)GlcNAc(b1-2)Man(a1-3)]Man(b1-4)GlcNAc(b1-4)[Fuc(a1-6)]GlcNAc
Procedure, shortened: as §1

[39] = target: Gal(b1-3)GlcNAc(b1-3)Gal(b1-4)GlcNAc(b1-3)Gal(b1-4)GlcNAc(b1-2)[Gal(b1-3)GlcNAc(b1-3)Gal(b1-4)GlcNAc(b1-3)Gal(b1-4)GlcNAc(b1-6)]Man(a1-6)[Gal(b1-3)GlcNAc(b1-3)Gal(b1-4)GlcNAc(b1-3)Gal(b1-4)GlcNAc(b1-2)Man(a1-3)]Man(b1-4)GlcNAc(b1-4)[Fuc(a1-6)]GlcNAc
Procedure, shortened: as §1

[40] = target: Gal(b1-3)GlcNAc(b1-3)Gal(b1-4)GlcNAc(b1-6)[Gal(b1-3)GlcNAc(b1-3)]Gal(b1-4)Glc
Procedure, shortened: as §1

[41] = target: Gal(b1-3)GlcNAc(b1-3)Gal(b1-4)[Fuc(a1-3)]GlcNAc
Procedure, shortened: as §1

[42] = target: Gal(b1-3)GlcNAc(b1-3)Gal(b1-4)[Fuc(a1-3)]GlcNAc(b1-6)[Gal(b1-3)GlcNAc(b1-3)]Gal(b1-4)Glc
Procedure, shortened: as §1

[43] = target: Gal(b1-3)GlcNAc(b1-3)GalNAc
Procedure, shortened: as §1

[44] = target: Gal(b1-3)GlcNAc(b1-6)Gal(b1-4)GlcNAc
Procedure, shortened: as §1

[45] = target: Gal(b1-3)GlcNAc(b1-6)GalNAc
Procedure, shortened: as §1

B1: TIM1 (protein)
chain: ADGIQSVKVGGEAGPSVTLPCHYSGAVTSMCWNRGSCSLFTCQNGIVWTNGTHVTYRKDTRYKLLGDLSRRDVSLTIENTAVSDSGVYCCRVEHRGWFNDMKITVSLEIVPPHHHHHH
Question: Which “glycan array binding signal (z-score)” value [1] does the source give for B1 here?
Answer: -0.212

Question: What about the “glycan array binding signal (z-score)” value [2] of the same binder?
Answer: 0.343

Question: And the “glycan array binding signal (z-score)” value [3]?
Answer: -0.256

Question: What about the “glycan array binding signal (z-score)” value [4] of the same binder?
Answer: -0.141

Question: What about the “glycan array binding signal (z-score)” value [5] of the same binder?
Answer: -0.177

Question: And the “glycan array binding signal (z-score)” value [6]?
Answer: -0.138

Question: And the “glycan array binding signal (z-score)” value [7]?
Answer: 0.025

Question: What about the “glycan array binding signal (z-score)” value [8] of the same binder?
Answer: 0.219

Question: What about the “glycan array binding signal (z-score)” value [9] of the same binder?
Answer: -0.248

Question: And the “glycan array binding signal (z-score)” value [10]?
Answer: -0.049

Question: And the “glycan array binding signal (z-score)” value [11]?
Answer: -0.2

Question: What about the “glycan array binding signal (z-score)” value [12] of the same binder?
Answer: -0.176

Question: What about the “glycan array binding signal (z-score)” value [13] of the same binder?
Answer: -0.138

Question: And the “glycan array binding signal (z-score)” value [14]?
Answer: -0.169

Question: What about the “glycan array binding signal (z-score)” value [15] of the same binder?
Answer: -0.145

Question: What about the “glycan array binding signal (z-score)” value [16] of the same binder?
Answer: -0.144

Question: What about the “glycan array binding signal (z-score)” value [17] of the same binder?
Answer: -0.226

Question: And the “glycan array binding signal (z-score)” value [18]?
Answer: -0.26

Question: What about the “glycan array binding signal (z-score)” value [19] of the same binder?
Answer: -0.197

Question: And the “glycan array binding signal (z-score)” value [20]?
Answer: -0.191

Question: And the “glycan array binding signal (z-score)” value [21]?
Answer: -0.255

Question: What about the “glycan array binding signal (z-score)” value [22] of the same binder?
Answer: -0.176

Question: And the “glycan array binding signal (z-score)” value [23]?
Answer: -0.23

Question: What about the “glycan array binding signal (z-score)” value [24] of the same binder?
Answer: -0.095

Question: And the “glycan array binding signal (z-score)” value [25]?
Answer: -0.226

Question: And the “glycan array binding signal (z-score)” value [26]?
Answer: -0.229

Question: What about the “glycan array binding signal (z-score)” value [27] of the same binder?
Answer: -0.21

Question: What about the “glycan array binding signal (z-score)” value [28] of the same binder?
Answer: -0.213

Question: And the “glycan array binding signal (z-score)” value [29]?
Answer: -0.147

Question: What about the “glycan array binding signal (z-score)” value [30] of the same binder?
Answer: -0.172

Question: What about the “glycan array binding signal (z-score)” value [31] of the same binder?
Answer: -0.048

Question: What about the “glycan array binding signal (z-score)” value [32] of the same binder?
Answer: -0.097

Question: What about the “glycan array binding signal (z-score)” value [33] of the same binder?
Answer: -0.186

Question: What about the “glycan array binding signal (z-score)” value [34] of the same binder?
Answer: -0.191

Question: What about the “glycan array binding signal (z-score)” value [35] of the same binder?
Answer: -0.231

Question: What about the “glycan array binding signal (z-score)” value [36] of the same binder?
Answer: -0.272

Question: And the “glycan array binding signal (z-score)” value [37]?
Answer: -0.185

Question: And the “glycan array binding signal (z-score)” value [38]?
Answer: 0.883

Question: And the “glycan array binding signal (z-score)” value [39]?
Answer: 0.247

Question: And the “glycan array binding signal (z-score)” value [40]?
Answer: -0.228

Question: And the “glycan array binding signal (z-score)” value [41]?
Answer: -0.24

Question: And the “glycan array binding signal (z-score)” value [42]?
Answer: -0.275

Question: And the “glycan array binding signal (z-score)” value [43]?
Answer: -0.16

Question: And the “glycan array binding signal (z-score)” value [44]?
Answer: -0.276

Question: And the “glycan array binding signal (z-score)” value [45]?
Answer: -0.211
